# Reference: PubChem BioAssay AID686978 (National Center for Advancing Translational Sciences (NCATS), 2013)
# “And” between values parts separate entries of the source, which are not always exact repeats. Equal values may be shown once. In all, about 420,000 compounds went through this assay and about 64,000 (15%) were called active. Inconclusive means that the source gave no clear call. Such entries were picked first, then a sample of the others. Calls follow the shape of the dose curve; as a rule, active = well fitted inhibition curve with a large enough effect; inconclusive = small, poorly fitted or top-dose-only effect; inactive = flat fitted curve, though single readings scatter. Where the call is inconclusive, the potency comes from a doubtful curve fit.
# Test: qHTS for Inhibitors of human tyrosyl-DNA phosphodiesterase 1 (TDP1): qHTS in cells in absence of CPT; also: nearly all actives have a fitted effect of over 55% in size
# Details: DT40 Tdp1-/- hTDP1 cells, no CPT, ATP luminescence, 48 h; activity change, negative = growth inhibition: at 46.2 µM (top of the series) unless noted
# Outline: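 DT40 Tdp1-/-;hTDP1 cells, no CPT (DMSO vehicle only), 400 cells/well; compounds pin-transferred; ≥48 hr, 37 °C; CellTiter-Glo 30 min RT dark, luminescence read.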
# % is scaled to controls: 0 for no effect and ±100 for the full control effect; potency is read from the fitted curve at half-maximal effect; tags tell the direction and shape of the fitted curve.
SMILES,Potency,"activity change, negative = growth inhibition"
COc1ccccc1CNc1nc(-c2ccc(C(=O)N(C)C)cc2)nc2ccccc12,"inconclusive: 29.1 µM [inhibitor, single point]",
CCOc1cc(C(=S)N2CCOCC2)ccc1OC(=O)/C=C/c1ccc(OC)c(OC)c1,"inconclusive: 20.6 µM [inhibitor, partial curve]",
COc1cc(NC(=O)C2CCCCN2)ccc1OCC(C)C (configuration not stated),"inconclusive: 25.9 µM [inhibitor, single point]",
O=C(c1cccn2c(=O)c3cc(Cl)ccc3nc12)N1CCN(Cc2ccc3c(c2)OCO3)CC1,"inconclusive: 29.1 µM [inhibitor, single point]",
Cc1c(CC(=O)N2CCCCC2)c(=O)oc2c(C)c3occ(C(C)(C)C)c3cc12,active: 14.6 µM,
CCOc1ccc(CCNC(=O)CSc2n[nH]c(-c3ccccc3)n2)cc1OCC,"inconclusive: 29.1 µM [inhibitor, single point]",
CCCCOc1ccc(C(C)NC(=O)c2cccc(Nc3nc4ccccc4n4nnnc34)c2)cc1 (configuration not stated),active: 5.8 µM,
COc1ccc(S(=O)(=O)N2CC(C)N(S(=O)(=O)c3ccc(OC)cc3)CC2C)cc1 (configuration not stated),,inconclusive: -34.2% [inhibitor]
COc1cccc(OC)c1NC(=O)CN(C)S(=O)(=O)c1ccc2c(c1)OCCO2,,inactive: -20.1%
COc1cccc(NS(=O)(=O)c2cc(C)sc2C)c1,"inconclusive: 16.4 µM [inhibitor, single point]",
Cc1ccc(S(=O)(=O)N2CCCCCC2)cc1C(=O)NCc1ccccn1,"inconclusive: 32.6 µM [inhibitor, partial curve, poor fit]",
Oc1ccccc1C=NCc1ccccc1,"inconclusive: 33.5 µM [inhibitor, single point]",
CCN(CC)C(=O)Cn1c(=O)n(CCC(=O)Nc2ccc(F)cc2)c(=O)c2sccc21,,inactive: 3.67%
Cc1noc(C)c1CSc1ncnc2sc(C)c(C)c12,,inconclusive: -37% [inhibitor]
N=c1c(C(=O)NCCc2ccccc2)cc2c(=O)n3ccccc3nc2n1CC1CCCO1 (configuration not stated),"inconclusive: 25.9 µM [inhibitor, single point]",
CN(Cc1ccc(-n2cccn2)cc1)Cc1cn(C)nc1-c1ccccc1F,,inactive: -27.5%
O=C(NCCCNC(=O)c1ccccn1)c1ccc(F)cc1,,inactive: -2.3%
COc1ccc(CNC(=O)c2cc3c(=O)n4ccccc4nc3n(CC3CCCO3)c2=N)cc1 (configuration not stated),,inactive: -22.2%
Cn1c(Cc2cccc3ccccc23)nnc1SCC(=O)N1CCN(c2ccccc2)CC1,"inconclusive: 13 µM [inhibitor, partial curve]",
CN(C)c1cc2c(cc1NS(=O)(=O)c1ccccc1)n(C)c(=O)n2C,"inconclusive: 18.4 µM [inhibitor, single point] and inconclusive: 18.4 µM [inhibitor, partial curve]",
CCOC(=O)c1c(S(=O)(=O)NCC(=O)N2CCN(c3ccc(F)cc3)CC2)c(C)n(C)c1C,,inactive: 15.8%
O=C(CSc1nnc(Cc2ccccc2)n1C1CCCCC1)N1CCOCC1,,inactive: -19.5%
Cc1cc(C(=O)CN2C(=O)C(=O)N(Cc3ccco3)C2=O)c(C)n1CCc1ccccc1,active: 18.4 µM,

SMILES,Potency,"activity change, negative = growth inhibition"
CC(C)Oc1ccc(C(=O)NC(=S)Nc2ccc(Cl)c(C(=O)O)c2)cc1,,inactive: -3.68%
Cc1ccccc1C(=O)NCCc1nnc(SCC(=O)Nc2nc(-c3ccccc3)cs2)n1C,"inconclusive: 29.1 µM [inhibitor, single point]",
Cc1cccc(NC(=O)CNC(=O)c2sc3ccccc3c2Cl)n1,"inconclusive: 29.1 µM [inhibitor, single point]",
O=C(NCCc1ccc(Cl)cc1)C1CCN(S(=O)(=O)c2ccc(Br)s2)CC1,"inconclusive: 20.6 µM [inhibitor, single point]",
N#C/C(=C\c1ccc(O)cc1)C(=O)NCc1cccc(Cl)c1,,inactive: -3.78%
O=C(C1CC1)N1CCc2cc(Br)cc(S(=O)(=O)NC3CCCCC3)c21,"inconclusive: 13 µM [inhibitor, partial curve]",
Cc1cccc(N2CCN(C(=O)c3ccc(CS(=O)c4cccc(Cl)c4)o3)CC2)c1C (configuration not stated),active: 0.92 µM,
COc1ccc2c(c1)OC[C@H]1c3cc4c(cc3O[C@@H]21)OCO4,,inactive: -14.6% [at 9.04 µM]
CN1/C(=C\C(=O)Nc2ccc(Cl)cc2)C(C)(C)c2ccccc21,"inconclusive: 23.1 µM [inhibitor, single point]",
Cc1cccc(NC(=O)CSCC(=O)Nc2cc(S(=O)(=O)N3CCOCC3)ccc2OC(C)C)c1,"inconclusive: 14.6 µM [inhibitor, single point]",
Cc1ccc(CNC(=O)C(=O)NCC2OCCN2S(=O)(=O)c2ccc(Cl)cc2)cc1 (configuration not stated),"inconclusive: 16.4 µM [inhibitor, single point]",
Nc1cccc(/C=C/c2ccnc3ccccc23)c1,"inconclusive: 35.5 µM [inhibitor, single point]",
CCOC1=C2[C@@H](CN(S(=O)(=O)c3ccc(C)cc3)[C@H]2c2ccccc2Cl)[C@H]2C(=O)N(C(C)(C)C)C(=O)[C@H]2C1,"inconclusive: 29.1 µM [inhibitor, single point]",
COc1ccc(C(=O)c2ccc(CC#N)s2)cc1,"inconclusive: 29.1 µM [inhibitor, single point]",
O=C(COc1ccc2ccccc2c1)N1CCN(c2ccccc2O)CC1,"inconclusive: 23.1 µM [inhibitor, single point]",
O=C1C(=Cc2cccc(F)c2)Cc2ccccc21,,inconclusive: -30.4% [inhibitor]
CCN(CC(=O)Nc1cc(Cl)ccc1C)C(=O)CSCc1ccc(C)cc1,"inconclusive: 0.731 µM [inhibitor, full curve, poor fit]",
Cc1cc(OCC(=O)N(C)C2CCCCC2)cc(C)c1Cl,active: 20.6 µM,
Cc1ccc(-c2[nH]c3ccccc3c2SCCNC(=O)c2ccc(S(=O)(=O)N(C)C)cc2)cc1,active: 5.8 µM,
COc1ccc(/C=N/NC(=O)c2cccc(NC(=O)c3ccc(Cl)cc3)c2)c(OC)c1,"inconclusive: 18.4 µM [inhibitor, single point]",
O=C(Nc1ccc(O)c(-c2nc3ccccc3o2)c1)C1(c2ccccc2)CCCC1,"inconclusive: 25.9 µM [inhibitor, single point]",
CCSc1nnc2c(n1)OC(c1ccc(C)cc1)N(C(C)=O)c1ccccc1-2 (configuration not stated),"inconclusive: 29.1 µM [inhibitor, single point]",
COCCNC(=O)CCC(=O)N1Cc2cccc(OC)c2Oc2ncccc21,"inconclusive: 29.1 µM [inhibitor, single point]",

SMILES,Potency,"activity change, negative = growth inhibition"
COc1cc(NC(=O)c2ccc(-c3cccnc3)c3ccoc23)cc(OC)c1OC,active: 6.51 µM,
COc1ccc(CNC(=O)CCCN2C(=O)CSc3c2c(C)nn3-c2ccccc2)c(OC)c1,active: 16.4 µM,
Cc1ccccc1-n1nc(-c2cccnc2)cc1C(=O)NN,,inactive: -10%
COc1ccccc1OCC(=O)NNC(=S)NC(=O)c1ccco1,active: 18.4 µM,
O=C(CNc1ccc(Br)cc1)Nc1cccc(S(=O)(=O)N2CCCC2)c1,"inconclusive: 18.4 µM [inhibitor, single point]",
COc1ccc(N2CCN(C(c3ccc(C)cc3)c3nnnn3C(C)(C)C)CC2)cc1 (configuration not stated),active: 14.1 µM,
C[C@H]1CN([C@@H](C)CO)C(=O)c2cccc(NC(=O)c3cnccn3)c2O[C@@H]1CN(C)C(=O)Nc1ccc2c(c1)OCO2,,inactive: -18.1%
COc1cc(NC(=S)NC(=O)c2ccccc2C)ccc1NC(=O)c1cccs1,"inconclusive: 29.1 µM [inhibitor, single point]",
COc1ccc(-c2nn(-c3ccccc3)cc2CN2CCCO2)c(F)c1,"inconclusive: 29.1 µM [inhibitor, single point]",
Cc1ccsc1C(=O)OCc1nc2ccsc2c(=O)[nH]1,"inconclusive: 18.4 µM [inhibitor, single point]",
COc1ccc(Cl)cc1NC(=O)CCS(=O)(=O)c1cccc2nonc12,"inconclusive: 29.1 µM [inhibitor, single point]",
Cc1cccc(/C=N/NC(=O)c2ccc(F)cc2)n1,"inconclusive: 29.1 µM [inhibitor, single point]",
C[C@@H]1CN([C@@H](C)CO)C(=O)c2cc(C#Cc3ccccc3)cnc2O[C@H]1CN(C)C(=O)c1ccccc1F,"inconclusive: 9.2 µM [inhibitor, partial curve]",
Cc1ccc(-c2nn(C)c(=O)c3ccccc23)cc1S(=O)(=O)N1CCOCC1,"inconclusive: 22.4 µM [inhibitor, single point]",
Cc1c(C(=O)N(Cc2nnc(-c3ccccc3Cl)o2)C2CC2)oc2ccccc12,"inconclusive: 20.6 µM [inhibitor, partial curve, poor fit]",
O=C(Nc1ccc(N2CCOCC2)cc1)C1CCN(S(=O)(=O)c2ccccc2F)CC1,,inactive: -14.6%
O=c1c(-c2nnc(SCc3ccc(Cl)cc3Cl)o2)cccn1Cc1ccccc1,"inconclusive: 29.1 µM [inhibitor, single point]",
Cc1ccc(SCC(=O)NC2CCCCCC2)cc1,"inconclusive: 29.1 µM [inhibitor, single point]",
COc1ccc(N=Cc2c(O)[nH]c3ccccc23)cc1,"inconclusive: 23.1 µM [inhibitor, single point]",
COc1ccc(CCNC(=O)c2cc(S(=O)(=O)N(C)c3ccccc3)ccc2Cl)cc1,active: 7.31 µM,
CCCNC(=O)C(CC)NC(=O)c1cccc([N+](=O)[O-])c1 (configuration not stated),,inactive: 1.02%
